# In all, about 33,000 sequences were measured (“E-score (-0.5 to 0.5)”: median about -0.035, highest 2% from about 0.35 on). The list shows a part of the results.
# Biological target: T1, Pdr3 (UniProt P33200)
# T1 sequence: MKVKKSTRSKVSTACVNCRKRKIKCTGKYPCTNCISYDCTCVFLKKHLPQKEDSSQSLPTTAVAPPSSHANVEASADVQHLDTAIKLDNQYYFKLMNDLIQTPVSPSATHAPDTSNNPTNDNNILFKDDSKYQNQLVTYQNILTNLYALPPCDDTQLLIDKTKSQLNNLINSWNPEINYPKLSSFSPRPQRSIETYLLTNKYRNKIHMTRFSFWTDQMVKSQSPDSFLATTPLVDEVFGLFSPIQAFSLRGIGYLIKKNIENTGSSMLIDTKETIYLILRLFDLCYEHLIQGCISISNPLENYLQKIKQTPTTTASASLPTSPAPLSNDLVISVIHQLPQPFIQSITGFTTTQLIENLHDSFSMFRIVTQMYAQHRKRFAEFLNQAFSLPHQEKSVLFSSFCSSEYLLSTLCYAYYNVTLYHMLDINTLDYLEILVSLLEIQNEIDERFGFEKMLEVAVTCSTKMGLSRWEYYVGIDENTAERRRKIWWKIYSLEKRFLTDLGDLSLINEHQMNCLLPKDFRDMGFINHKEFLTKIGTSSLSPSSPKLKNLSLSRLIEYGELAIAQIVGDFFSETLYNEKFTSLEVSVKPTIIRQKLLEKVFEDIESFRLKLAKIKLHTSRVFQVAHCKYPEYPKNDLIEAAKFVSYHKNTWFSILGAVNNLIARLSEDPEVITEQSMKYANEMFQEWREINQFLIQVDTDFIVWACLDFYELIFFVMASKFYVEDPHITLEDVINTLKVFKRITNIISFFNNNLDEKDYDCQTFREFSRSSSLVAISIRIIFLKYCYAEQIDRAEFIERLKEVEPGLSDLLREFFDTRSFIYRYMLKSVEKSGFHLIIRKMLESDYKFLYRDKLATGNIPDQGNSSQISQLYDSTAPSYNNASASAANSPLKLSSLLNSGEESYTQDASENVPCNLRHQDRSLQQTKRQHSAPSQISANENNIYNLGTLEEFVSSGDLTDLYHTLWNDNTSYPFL
# Test: PBM E-score (8-mer binding enrichment) (E-score (-0.5 to 0.5)); higher = stronger / more preferred TF binding; most listed sequences are background and not binding sites
# Settings: protein concentration: 200 nM; construct: GST-full length
# Method in brief: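 E-scores (a modified Wilcoxon-Mann-Whitney statistic) were assigned by the Universal PBM Analysis Suite to every ungapped eight-base word pooled with its reverse complement. The input came from universal all-10-mer Agilent arrays made double-stranded by primer extension and probed with GST-tagged yeast transcription factors at about 100-200 nM. Fluorescent anti-GST detected bound protein, and masliner normalised the scans.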
row,Sequence,PBM E-score
1,CGGAGAAC,0.272
2,TACGCTCA,-0.261
3,CTGTGTTC,0.0921
4,AACGCATA,-0.112
5,CAATACCC,0.0782
6,TCCGAAGA,0.339
7,CGATGGCA,-0.0105
8,CGCAATAG,-0.0261
9,ACCGACGG,0.229
10,AACAGTGA,-0.0881
11,GTACAGTA,-0.113
12,AGTCACAG,-0.199
13,CCCCCGCA,-0.0494
14,CAGAAAGG,-0.151
15,TTACGCAA,-0.0756
16,CGAGCGTA,-0.00809
17,CATAGCTC,-0.0914
18,ACAGTGGA,-0.0482
19,CAGGGTCC,-0.155
20,CAGATTAC,-0.0927
21,ACGATGTA,-0.111
22,CGATGATA,0.154
23,GAATTTGA,0.0448
24,TAAGACTA,-0.1
25,GAGAATCC,0.225

row,Sequence,PBM E-score
1,CTTAATAC,-0.134
2,ACCTCTCC,-0.0628
3,AAAGATCG,-0.0324
4,CGTCTCAG,-0.204
5,GAAGGGAA,-0.0562
6,AACTCGAG,0.0466
7,AGGAACGG,0.228
8,CTTAAAGA,-0.238
9,CATAACAG,-0.265
10,GCCCACCA,-0.11
11,CCCAAGCG,0.00643
12,AACTTGTA,-0.15
13,ATTAACAC,0.0702
14,CTTTGGTA,-0.113
15,ACCATAAA,-0.0954
16,CCCAATAC,-0.0296
17,GGAGTGTA,-0.0955
18,ATTTACCC,0.121
19,GAGTGTCA,0.115
20,AGAGTGCA,-0.171
21,TAGACGAA,-0.215
22,AAGAACCC,-0.00045
23,AATTGTAA,-0.204
24,ACAGGGAA,-0.138
25,AGCCCAGC,-0.129

row,Sequence,PBM E-score
1,TGTTACAA,-0.00396
2,GTACTCGA,-0.0779
3,GAGATCTA,-0.19
4,CATATGAA,0.0687
5,AGCTAATC,-0.0527
6,TAGCCAGA,-0.201
7,GTCCACGA,-0.114
8,GGAGCTAC,-0.0989
9,AGAGTCTG,-0.311
10,ACGCTCGC,-0.106
11,AAAGGATT,-0.112
12,CAACCACA,0.0554
13,CTGACAAA,-0.221
14,AAAAGGCA,0.0241
15,AAAGTGCT,-0.132
16,AGCACCGA,0.0432
17,ATACTGGA,0.022
18,AACGTACT,-0.0185
19,TCCAATAA,0.104
20,AAGGCAAT,-0.00094
21,ATAGCCTG,-0.239
22,AAGCCCAG,-0.108
23,GGTGTTGA,-0.143
24,CGCCCCGC,0.25
25,ACATAGAC,-0.151

row,Sequence,PBM E-score
1,GACTGCAA,-0.221
2,ACACATCC,0.144
3,ACCTGGGC,-0.326
4,GGTTGAAC,0.0522
5,CATTAACG,0.144
6,AAGAATCA,0.0654
7,GCGTGTCC,0.201
8,ACACATGT,0.0162
9,CATTCAGA,-0.146
10,ATCCGCTA,0.229
11,ACTACTTG,-0.136
12,ATTTCTAC,-0.105
13,GCACGTGA,-0.224
14,AACTTAAC,0.0508
15,CAATCCCG,0.392
16,GAAGCACA,0.0799
17,ATACCGTG,0.0655
18,CCCCGGGG,0.412
19,GCACTCAA,-0.101
20,ACCCCGGA,0.352
21,TGTACACA,-0.266
22,ATTAAGAC,-0.289
23,CCTGATTC,0.0544
24,ATATCACG,-0.0463
25,CGCATAAA,-0.074

row,Sequence,PBM E-score
1,CGCGTCAG,-0.0796
2,GAGAGGAA,-0.128
3,ATACTCAT,-0.11
4,ACCAGAAC,0.0531
5,AGAAAGGA,-0.191
6,ATTTAACA,0.00265
7,AATCAAAT,0.116
8,AGGCAGGC,-0.0703
9,ATGGACAA,-0.148
10,AGGGTATG,-0.154
11,CCAATTCC,0.279
12,ATTATCGC,0.00543
13,CGGAAAAA,0.403
14,AACTGTGG,0.073
15,AAGGCATC,-0.216
16,CTAAAGCA,-0.0427
17,ATGTATCG,0.0406
18,ATCAGGTG,-0.0026
19,GTGTAAAC,-0.142
20,CTAGAGTC,-0.359
21,AGAGACTC,-0.155
22,CGAGTGCG,0.2
23,AGCCAACC,0.0898
24,AAGACGAC,-0.103
25,TGAGATCA,0.0786

row,Sequence,PBM E-score
1,CTTCTTCC,0.0547
2,ACCGGGGA,0.0294
3,ACACTGCA,-0.0473
4,ACGTTTGG,-0.248
5,AGTAGCTC,0.0104
6,ATATGCCG,0.208
7,TAGTTTCA,0.0772
8,GTAAATAA,-0.128
9,GACAGTCA,0.00968
10,AGGACATA,-0.214
11,GACATAAA,-0.0161
12,GTCCTGTA,-0.0662
13,GTATCCTA,-0.125
14,CACAGACG,-0.141
15,TACATGAA,-0.132
16,CACCTCGG,0.276
17,ACTGGACT,-0.295
18,GGAACTCC,0.366
19,GTACCCGA,0.103
20,ACACTGCT,-0.268
21,CTCTCCGA,0.179
22,GATACACA,-0.123
23,CATTTTGG,-0.159
24,CTAAATCA,-0.153
25,AGAAATAG,-0.195

row,Sequence,PBM E-score
1,ACTTCTAA,-0.097
2,GCCCGTCC,0.187
3,TACTTGCA,-0.102
4,ACGGTACG,0.0442
5,CCTACATA,-0.14
6,GGGTCTGA,0.0223
7,AGTCGAAA,-0.085
8,AGGTTCTG,-0.271
9,GTGGCATA,-0.0548
10,TGCCAGAA,-0.148
11,GAGAAGAA,0.0956
12,ACTGAGAG,-0.107
13,AGCGATTG,-0.00592
14,ACTTTAAT,-0.0155
15,ATGCAGTA,0.044
16,GAAAGAGA,0.079
17,ACCGTCCC,0.171
18,CTTCTAGA,-0.249
19,ATCCGCTG,0.22
20,AACTTCCG,0.388
21,GTATTCAA,0.0848
22,ACGGAGCG,0.337
23,AACAGAAT,-0.162
24,CACCTGCG,-0.0389
25,ATATTGGC,0.0402

row,Sequence,PBM E-score
1,CCGGGTGA,0.404
2,CTCGGCAG,0.219
3,AAGTGCGT,-0.216
4,AAGCACCT,-0.183
5,GCATAAAA,-0.0786
6,AAGATAGC,-0.00731
7,AAGCTTTG,-0.0525
8,ATGTGAGC,-0.179
9,TCAGGTCA,-0.0755
10,ACTCGTGA,-0.248
11,CGTCCCGC,0.338
12,AACGTTCG,0.0638
13,GCTTCGAC,-0.155
14,ACGTAGGG,-0.276
15,ATAGGCTG,-0.237
16,AGTCAGGG,-0.388
17,AGCCTTGC,-0.071
18,ACTATGTC,-0.0403
19,CCAAATGG,-0.0949
20,AAGGCGTA,-0.289
21,CGGTTCGC,0.0341
22,CGAGCAGC,0.038
23,GAGGATCA,-0.0387
24,GTGGTTGA,-0.193
25,AGATGGAA,0.059

row,Sequence,PBM E-score
1,AATTTAGT,0.112
2,TGCGGCCA,0.0662
3,ACCCCTAC,-0.242
4,AATAGGTG,-0.229
5,CTTGGACA,-0.0848
6,AGCCCTAT,-0.145
7,CTTACACC,-0.124
8,AAAAACAT,-0.121
9,GACCAAAC,-0.0395
10,TAGTCCGA,0.11
11,GCTCAGCA,-0.114
12,AAGTATTA,-0.148
13,ACACCCGC,0.266
14,CCTGAGGA,0.00848
15,CAAGTGGA,-0.216
16,AAACTTTA,0.00534
17,AGCCGGAT,0.391
18,CACAACAA,-0.0956
19,AATCTGGT,0.0738
